# In the supplement of paper PMC3334620:
# Whole data set: some 33,000 sequences, median “E-score (-0.5 to 0.5)” near -0.013, cut for the highest 2% near 0.3. Some of the results follow.
# Molecular target: T1, Msn1 (UniProt P22148)
# T1 sequence: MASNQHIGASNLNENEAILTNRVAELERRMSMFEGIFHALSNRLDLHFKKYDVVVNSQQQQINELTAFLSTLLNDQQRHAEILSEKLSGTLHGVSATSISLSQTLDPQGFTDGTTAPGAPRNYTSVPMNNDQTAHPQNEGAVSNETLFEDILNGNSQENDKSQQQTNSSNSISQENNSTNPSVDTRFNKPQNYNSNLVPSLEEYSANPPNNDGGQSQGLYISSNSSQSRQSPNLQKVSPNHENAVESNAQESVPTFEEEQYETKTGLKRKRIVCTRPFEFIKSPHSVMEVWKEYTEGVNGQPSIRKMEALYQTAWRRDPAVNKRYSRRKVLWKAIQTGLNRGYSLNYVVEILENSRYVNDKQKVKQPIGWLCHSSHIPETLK
# Assay: PBM E-score (8-mer binding enrichment) (E-score (-0.5 to 0.5)); higher = stronger / more preferred TF binding; most listed sequences are background and not binding sites
# Details: protein concentration: 200 nM; construct: GST-full length
# Method in brief: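 Full-length yeast transcription factors or their DNA-binding domains, GST-tagged and expressed with PURExpress, were applied at about 100-200 nM to universal all-10-mer Agilent arrays. These arrays had been made double-stranded by primer extension on fresh or once-stripped slides. Detection used fluorescent anti-GST, normalisation used masliner, and E-scores for ungapped eight-base words pooled with reverse complements came from the Universal PBM Analysis Suite.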
row,Sequence,PBM E-score
1,CGCGCTTA,0.0928
2,CTAGTTTA,0.0758
3,AGGACGAG,0.00512
4,AAAGTGGA,0.0341
5,ACTCATAT,0.00588
6,GCCAAGAC,0.0238
7,CTGACCAC,-0.193
8,ATTCGCCA,-0.039
9,CTTCGAGC,-0.0695
10,AAAATCTC,0.0002
11,CGTGATGA,-0.113
12,ATGCTAAT,0.0422
13,CATTAAAA,0.261
14,GGAGGCCC,-0.356
15,CGCCGGGC,-0.00571
16,AAGTCGCT,-0.0636
17,GAGCTTAC,-0.0923
18,GGATTCAC,-0.0279
19,ATTGGCTG,-0.139
20,AGGCCTCC,-0.0887
21,CGGCTCAA,0.0475
22,TATTGTAA,-0.0211
23,TCACCTCA,-0.108
24,AGCCCTAG,0.0205
25,GCTAACCA,-0.11

row,Sequence,PBM E-score
1,GCGGATAA,0.0261
2,AACTCAGT,-0.108
3,GACCAAAA,0.193
4,ATGTACAC,0.268
5,CCCGGGGC,-0.265
6,CCCTGACG,-0.155
7,CACGCGGA,0.111
8,GAACCATC,-0.0276
9,ATCTATAA,0.0177
10,AAAGCATA,-0.00173
11,CATATTCC,0.0363
12,CAGGTACA,0.29
13,GGGCTCCA,-0.358
14,TACACAAA,0.205
15,CCGCCAAA,-0.00339
16,AACTACAC,0.0736
17,CCACCCAG,-0.0137
18,AATAGCTA,-0.0565
19,CCTGTGAA,0.0235
20,GCTCTTAA,0.103
21,GGGGTAGA,-0.13
22,GATAGTCA,-0.0452
23,GTATGGAA,-0.0401
24,AAAATAGG,0.211
25,CCGGCGCC,0.0624

row,Sequence,PBM E-score
1,GAGATGAA,0.024
2,GCTAGAGA,-0.0388
3,ACGGTTCG,-0.00068
4,CGACTCTC,-0.106
5,GAAAGACC,-0.151
6,CAGGATAC,-0.0293
7,AATCATAT,0.165
8,TAGGGAAA,-0.0483
9,CTGTGTAA,0.026
10,AAGCCTCC,-0.165
11,GTGACAAC,0.139
12,CTTTCATA,0.115
13,AAAATGTA,0.254
14,ACGTTCGA,-0.0518
15,AGATGAAC,0.279
16,ATGACCAG,0.102
17,CTTGATTA,0.0192
18,ATAGAGTG,-0.104
19,CTATATCA,-0.00353
20,GGTGGACA,0.325
21,AAATTCGG,0.146
22,CAGGCACG,-0.204
23,CCCGCTCC,-0.372
24,AGATTGGC,-0.178
25,AAGGCCGC,-0.0422

row,Sequence,PBM E-score
1,GGTTGCGA,0.0472
2,CGGGGTTA,-0.0803
3,ATAGCAAT,0.119
4,AATGTTGC,0.0459
5,AAGTTGCG,-0.00973
6,ACAAGACT,0.0607
7,CCCAGGGG,-0.394
8,GGTAGCCA,-0.0667
9,AGAGCAGG,-0.00831
10,TATCGAGA,0.112
11,AAACCCAA,0.0915
12,ATGAATTC,0.0224
13,CAATCACA,0.112
14,AACAATCA,0.139
15,ATCATAGG,-0.0658
16,ACCGTAGT,-0.0268
17,TGTGTAAA,0.169
18,ACCCGAAG,-0.0262
19,CACTTTCC,-0.221
20,GCGTTAGC,0.0468
21,CAAATTAC,0.0417
22,GAGACGAC,0.0177
23,CTTAGGAA,0.00599
24,GGGTGCGA,-0.192
25,TGTTCAAA,0.0806

row,Sequence,PBM E-score
1,AGGTGTCA,0.0091
2,CCGAAAAA,0.223
3,AAAAATCA,0.162
4,GTTCAGGA,-0.0428
5,CCATACAA,0.0759
6,ACGATAGG,-0.181
7,AGAGTAAC,-0.0442
8,GACGTTAA,0.154
9,TCAACTAA,0.0282
10,AACTTAGG,0.102
11,GTCTGGCA,0.0377
12,GGGTTCAA,0.0139
13,ATTTTTCG,0.282
14,CCGGATAA,0.172
15,GTTGGAGA,-0.0165
16,CTCTCCCA,-0.197
17,ACGGCAGG,-0.261
18,GTATATGA,0.118
19,ATTTACTA,0.206
20,ACGGGAAT,-0.0339
21,CTATTGTC,0.288
22,TCCTCTCA,-0.256
23,GATGGAAA,-0.126
24,ACCAAGTA,-0.0228
25,GTTGTGAA,0.0984

row,Sequence,PBM E-score
1,ATACCGTA,-0.0273
2,GTCGGGTA,0.0767
3,GGGTCTAA,-0.109
4,CTTAGATA,0.217
5,AATCGCCT,0.0986
6,ATGGCCAT,0.145
7,GTTACTAA,0.168
8,CTGTTCGC,0.0285
9,CTGGGGTA,-0.00889
10,GCCCACCC,-0.145
11,GGCCTACA,-0.0381
12,AAAATCGC,-0.00487
13,CGGGGAAC,-0.0755
14,CCGTACAG,-0.0369
15,AACGCTCG,0.109
16,CCAAACTC,-0.054
17,CGACCTAC,-0.107
18,ACCCGCGC,0.0994
19,GATGGGGC,-0.162
20,CTCTAGGC,-0.144
21,CCGGACGG,-0.0417
22,CTGCGTGC,-0.159
23,CCCTGCTC,-0.172
24,GGAGACCA,-0.0845
25,CATATTCA,0.211

row,Sequence,PBM E-score
1,AGGGTGAA,-0.177
2,CGGCATGA,0.182
3,CTTTACCC,-0.00697
4,CACTGATC,-0.0557
5,CGCCCTTA,-0.0904
6,CCTGAAAC,0.0986
7,CGAGTACC,0.0728
8,AGGCGCAC,-0.0415
9,AATGATAC,0.0824
10,CACTTCAA,0.0447
11,TTCTGAAA,0.173
12,CATTTGCC,-0.00883
13,ATACTGTA,0.235
14,ACAACCGG,0.0947
15,GACGTCTA,-0.0898
16,AAACAACT,0.113
17,AAAGAGGA,-0.224
18,GCCGAGCA,-0.105
19,GTATATCA,0.165
20,AAATTAGC,0.101
21,CGGTCAGC,-0.112
22,CACCTCCC,-0.17
